Laboratory results as given in PubChem BioAssay AID1347417 (National Center for Advancing Translational Sciences (NCATS), 2020).
In all, about 120,000 compounds went through this assay and about 5,300 (4.4%) were called active. The inconclusive results got no clear call from the source; some entries with a clear call stand among them for comparison. Calls come from the whole dose curve; as a rule, active = well fitted inhibition curve with a large enough effect; inconclusive = small, poorly fitted or top-dose-only effect; inactive = no such curve, though single readings can be large or run the other way. A potency beside an inconclusive call is a rough fit, not a confirmed value.

Assay: qHTS Primary assay for Inhibitors of Plasmodium falciparum Dd2 growth in vitro; note: nearly all actives have a fitted effect of over 65% in size;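 for activity, negative = inhibition: plate controls were DMSO vehicle for no effect and reference drug for full effect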
Settings: P. falciparum Dd2 growth, SYBR Green, 72 h; activity, negative = inhibition: at 28.9 µM (top of the series) unless noted; series mostly up to 28.9 µM
In short: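 Readout: SYBR Green fluorescence, 485 nm excitation, 535 nm emission, after ~16 h lysis at 37C. Before that, Dd2-infected red cells (2.5% hematocrit) grew 72 h with compound, 29 uM top final concentration.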
Potency is the fitted concentration of half-maximal effect; tags give direction and shape of the fitted curve.

Structure (SMILES) | Potency | activity, negative = inhibition | outcome
COc1ccc(-c2noc(CSc3nnc(C)n3-c3ccc(C)c(C)c3)n2)c(OC)c1 | inconclusive: 7.94 µM [inhibitor, partial curve] | – | –
CCCC1=Nc2cc(C(=O)NCCOC)ccc2Sc2ccccc21 | inconclusive: 12.6 µM [inhibitor, partial curve, poor fit] | – | –
CCc1noc(-c2cccn3c(CNC(=O)c4ccc(Cl)cc4)nnc23)n1 | inconclusive: 0.355 µM [inhibitor, full curve, poor fit] | – | –
Cc1ccc(Cl)cc1N1CCN(C(=O)CCS(=O)(=O)c2ccc3c(c2)oc(=O)n3C)CC1 | inconclusive: 12.6 µM [inhibitor, single point] | – | –
O=C(N[C@H]1CO[C@H]2[C@@H]1OC[C@@H]2n1cc(CC2CCCCC2)nn1)C1CCCCC1 | inconclusive: 11.2 µM [inhibitor, partial curve] | – | –
Cc1ccc(Cl)cc1Nc1nn2c(=O)c3ccc(C(=O)NC(C)c4ccccc4)cc3nc2s1 (stereo not given) | active: 7.94 µM | – | –
CCc1cn(C[C@@H](C(=O)O)N(CC)CC)c(=O)[nH]c1=O | – | inactive: -0.0221% [at 44.1 µM] | –
CCOc1ccc(CNCc2c(C(=O)O)n(Cc3ccccc3C)c3cc(OC)ccc23)cc1OC | inconclusive: 10 µM [inhibitor, single point] | – | –
O=C(O)C1CC2(CCN(C(=O)CCc3ccncc3)CC2)CN1 (stereo not given) | – | inactive: 3.83% | –
CCC(C(=O)NC1CCCCC1)n1c(SCc2cccc(F)c2)nc2ccncc21 (stereo not given) | inconclusive: 12.6 µM [inhibitor, partial curve, poor fit] | – | –
O=c1ccc2cc(S(=O)(=O)N3CCC4(CCCNC4)C3)ccc2o1 (stereo not given) | – | inactive: -13.4% | –
Cc1ccc(-c2cc3c(=O)n(CCNC(=O)Cc4cccc(F)c4)ccn3n2)cc1C | inconclusive: 11.2 µM [inhibitor, single point] | – | –
O=C1Nc2ccccc2CC12CCN(Cc1ccc(Cl)cc1)CC2 | inconclusive: 11.2 µM [inhibitor, partial curve] | – | –
CN1C(=O)CCC2(CNC(=O)C3(S(=O)(=O)c4ccc(Cl)cc4)CC3)CCC=C12 (stereo not given) | inconclusive: 14.1 µM [inhibitor, single point] | – | –
O=C(c1cccc(O)c1)N1CCC2(CC1)Nc1ccccc1NC2=O | – | inactive: 8.22% | –
COC(=O)c1ccc2nc(C)cc(Nc3cccc(Cl)c3C)c2c1 | inconclusive: 0.0794 µM [inhibitor, partial curve, poor fit] | – | –
COc1cc(OC)nc(NCc2cccnc2N2CCN(C(C)=O)CC2)n1 | – | inactive: -16.2% | –
CCn1cc(S(=O)(=O)c2ccc(Cl)cc2)c(=O)c2cc(F)c(N3CCOCC3)cc21 | inconclusive: 12.6 µM [inhibitor, partial curve] | – | –
CN(Cc1ccc(-c2ccccc2)cc1)C(=O)c1cccc(Cl)c1 | – | inactive: -12.9% [at 44.1 µM] | –
Cc1ccc(CNC(=O)CN2C(=O)CCc3cc(S(=O)(=O)N4CCCCC4)ccc32)cc1 | inconclusive: 1.58 µM [inhibitor, partial curve, poor fit] | – | –
CCOc1ccccc1CNC(=O)c1oc2ccc3c(c2c1C)C(=O)CC(C)(C)O3 | inconclusive: 11.2 µM [inhibitor, single point] | – | –
COc1cccc(CCC(=O)N2CCCC(CN3CCCC3)CC2)c1 (stereo not given) | inconclusive: 7.08 µM [inhibitor, partial curve, poor fit] | – | –

Structure (SMILES) | Potency | activity, negative = inhibition | outcome
CC1=C[C@@H](CNCc2ccccc2F)[C@H](C(C)C)C[C@H]1Cc1nc2c(C)cccc2[nH]1 | inconclusive: 1.78 µM [inhibitor, partial curve, poor fit] | – | –
Cc1ccc2oc([C@H]3CCN(C(=O)C4CC4)C3)nc2c1 | inconclusive: 22.4 µM [inhibitor, single point] | – | –
COc1ccc(C(=O)NCCn2ccn3nc(-c4ccc(F)cc4)cc3c2=O)cc1OC | inconclusive: 1 µM [inhibitor, partial curve, poor fit] | – | –
Cc1cc(=O)n(CC(=O)Nc2ccccc2F)c(-c2ccccc2)n1 | inconclusive: 20 µM [inhibitor, single point] | – | –
CCCCN1C(=O)NC(c2ccc(OCC)cc2)C2=C1COC2=O (stereo not given) | inconclusive: 11.2 µM [inhibitor, partial curve] | – | –
O=C(NC1CCN(c2cc(-c3ccccc3)[nH]n2)C1)c1ccc2cc[nH]c2c1 (stereo not given) | – | inactive: -23.5% | –
COc1ccc(OCCn2nnc3sc4c(c3c2=O)CCCC4)cc1 | – | inactive: -3.71% | –
C[S+](=O)([O-])c1ccc(-c2nc(C(=O)NCc3ccc(F)cc3)n3ccncc23)cc1 | active: 11.2 µM | – | –
CC(CNC(=O)CCCn1c(=O)c2cccn2c2ccc(F)cc21)c1ccccc1 (stereo not given) | inconclusive: 17.8 µM [inhibitor, single point] | – | –
COc1cc(NC(=O)C2Cc3ccccc3N2C(=O)c2ccccc2)cc(OC)c1 (stereo not given) | inconclusive: 17.8 µM [inhibitor, single point] | – | –
Cc1ccc(NC(=O)c2ccc(Cn3ccn4nc5c(c4c3=O)CCCC5)cc2)cc1 | inconclusive: 10 µM [inhibitor, partial curve, poor fit] | – | –
Cc1nc(C2CCCCN2C(=O)c2ccccc2F)n[nH]1 (stereo not given) | – | inactive: -3.54% | –
O=C(CCN1CCCCO1)N1CCCC(CCc2ccc(F)c(F)c2)C1 (stereo not given) | – | inactive: -19.1% | –
COc1ccc(-c2cnc3[nH]cc(CC(=O)N4CCC(OC)CC4)c3c2)cc1 | inconclusive: 25.1 µM [inhibitor, single point] | – | –
CCOc1ccccc1Nc1sc(C(=O)c2ccc(Cl)cc2)c(N)c1S(=O)(=O)c1ccccc1 | inconclusive: 11.2 µM [inhibitor, single point] | – | –
N#Cc1ccccc1CN1CC[C@H]2C(=O)NCCCCCCN(Cc3ccncc3)[C@@H]2C1 | inconclusive: 20 µM [inhibitor, partial curve, poor fit] | – | –
COc1ccccc1-c1cnc(Nc2cccc(N[S+](C)(=O)[O-])c2)c2c1CCO2 | inconclusive: 14.1 µM [inhibitor, single point] | – | –
Cc1cccc(NC(=O)N2CCC(Cc3nc(-c4ccccc4)n[nH]3)CC2)c1 | active: 1.58 µM | – | –
C[C@H]1CCCN1C(=O)c1nnc(COc2cccc(C(F)(F)F)c2)n1-c1ccccc1 | – | – | inactive [at 44.1 µM]
N#Cc1c(C(F)(F)F)cc(-c2cccs2)nc1SCc1ccccc1F | inconclusive: 17.8 µM [inhibitor, single point] | – | –
COCCNC(=O)[C@@H]1C[C@@H](O)CN1C1CCN(C(=O)c2ccc(OC)nc2)CC1 | – | inactive: -3.5% | –
CCOC(=O)C1CCN(c2ncnc3c2c(-c2ccccc2)cn3-c2ccc(Cl)cc2)CC1 | inconclusive: 0.112 µM [inhibitor, full curve, poor fit] | – | –

Structure (SMILES) | Potency | activity, negative = inhibition | outcome
CC1CCC2(CC1)NC(=O)N(CC(N)=O)C2=O (stereo not given) | – | inactive: 54.1% | –
O=C1N[C@@H]2CCN(S(=O)(=O)Cc3ccccc3)[C@@H]2C(=O)N1c1ccc(F)cc1 | inconclusive: 3.16 µM [inhibitor, full curve] | – | –
CCOc1ccccc1CNS(=O)(=O)c1cc(-c2onc(C)c2C)ccc1OC | inconclusive: 17.8 µM [inhibitor, single point] | – | –
Cc1noc(C)c1-c1cc2c(cc(C)n2CCN(C)C)c(-c2ccccc2)n1 | inconclusive: 2.24 µM [inhibitor, partial curve, poor fit] | – | –
O=S(=O)(N[C@H]1CO[C@H]2[C@@H]1OC[C@@H]2n1nnnc1Oc1ccc(-n2ccnc2)cc1)c1ccc2ccccc2c1 | – | inactive: -25.7% | –
O=C(c1ccc(Cl)cc1)N1CC2(CCN(CC3CC3)CC2)Cc2ccccc21 | inconclusive: 7.94 µM [inhibitor, partial curve] | – | –
Cc1nc2nc(CNC(=O)c3cccc(F)c3)nn2c(C)c1CCC(=O)Nc1cccc(Cl)c1 | inconclusive: 17.8 µM [inhibitor, single point] | – | –
CC(C)(C)c1ccc(C(=O)Nc2c(C(=O)c3ccc(F)cc3)oc3ccccc23)cc1 | active: 8.91 µM | – | –
COc1ccccc1C(=O)N1CC(Oc2ccc(-c3nc(C)no3)cc2)C1 | – | – | inactive [at 5.79 µM]
COc1ccc(NC(=O)c2nc(-c3ccc(C)cc3)n3c2CCCCC3)cc1 | – | inconclusive: -100% [inhibitor] [at 5.79 µM] | –
COc1ccc(-c2[nH]nc3ncc(C(=O)N4CCC(c5ccccc5)CC4)nc23)c(C)c1 | inconclusive: 31.6 µM [inhibitor, single point] | – | –
O=C(NCCc1ccncc1)C1CN(C(=O)c2ccsc2)CC12CCOCC2 (stereo not given) | – | inactive: -10.8% | –
Cc1noc(C)c1CCC(=O)N1CCN(Cc2ccccc2)CC(O)C1 (stereo not given) | – | inactive: -1.9% | –
CC1(C(=O)NCc2ccc3c(c2)OCO3)CCc2cnc(NCc3ccccc3)nc21 (stereo not given) | inconclusive: 11.2 µM [inhibitor, partial curve, poor fit] | – | –
COc1ccc(-n2cc(C3=CCN(CCN4CCOCC4)CC3)cn2)cc1 | inconclusive: 11.2 µM [inhibitor, single point] | – | –
COCc1nc(NCCc2nc(-c3ccccn3)no2)c2cnn(C)c2n1 | – | inactive: -6.52% | –
Cc1ccc(S(=O)(=O)N[C@H]2CO[C@H]3[C@@H]2OC[C@H]3O)cc1 | inconclusive: 31.6 µM [inhibitor, single point] | – | –
c1cc2c(cc1-c1cnc3n1C[C@H](CNC1CCOCC1)OC3)OCO2 | – | inactive: 0.972% [at 44.1 µM] | –
Fc1ccc(CN2Cc3[nH]cnc3C[C@H]2c2nc(-c3ccccc3)no2)cc1 | inconclusive: 7.08 µM [inhibitor, partial curve, poor fit] | – | –
CC(C)(C)c1cc(C[C@@H]2C[C@H](NS(=O)(=O)c3ccccc3)C2(C)C)no1 | inconclusive: 12.6 µM [inhibitor, single point] | – | –
COCCN1C(=O)c2ccccc2C(C(=O)N2CCSCC2)C12CCCC2 (stereo not given) | – | inactive: 2.5% | –
